Test results published in PMC6919601, “Identification of Plasmodium dipeptidyl aminopeptidase allosteric inhibitors by high throughput screening” (PLoS ONE, 2019).
The campaign covered roughly 110,000 compounds. About 230 (0.21%) showed an effect of 50% or more. The list shows a part of the results.

Molecular target: DPAP1 (Plasmodium falciparum, UniProt Q8IIJ9)
Experiment: primary screen, percent inhibition; read by cleavage of a fluorogenic dipeptide substrate; higher = more effect of the substance
Set-up: species or system P. falciparum D10 trophozoite lysates; single well
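Note: 30 min substrate incubation versus DMSO and 10 µM JCP410 controls.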

Sequence of DPAP1 (Q8IIJ9 whole entry, looked up): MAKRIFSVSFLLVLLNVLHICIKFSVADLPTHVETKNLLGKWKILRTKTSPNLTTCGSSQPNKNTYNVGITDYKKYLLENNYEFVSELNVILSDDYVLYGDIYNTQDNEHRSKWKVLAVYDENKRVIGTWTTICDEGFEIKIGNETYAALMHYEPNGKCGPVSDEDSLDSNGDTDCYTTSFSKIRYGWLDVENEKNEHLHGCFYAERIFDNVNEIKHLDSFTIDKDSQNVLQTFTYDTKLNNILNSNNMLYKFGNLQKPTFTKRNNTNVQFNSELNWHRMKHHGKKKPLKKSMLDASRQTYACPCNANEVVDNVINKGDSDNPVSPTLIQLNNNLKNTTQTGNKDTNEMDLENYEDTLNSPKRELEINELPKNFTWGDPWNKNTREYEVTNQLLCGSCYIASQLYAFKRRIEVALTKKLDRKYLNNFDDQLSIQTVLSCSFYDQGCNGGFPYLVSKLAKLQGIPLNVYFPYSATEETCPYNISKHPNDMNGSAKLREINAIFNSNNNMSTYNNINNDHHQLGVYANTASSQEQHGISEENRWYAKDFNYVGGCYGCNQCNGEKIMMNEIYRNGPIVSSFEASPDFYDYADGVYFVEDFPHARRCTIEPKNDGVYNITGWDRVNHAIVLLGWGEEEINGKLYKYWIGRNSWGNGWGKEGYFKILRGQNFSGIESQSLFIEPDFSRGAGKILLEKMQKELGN

Q: `CC[C@H](NC(=O)[C@@H](NC(=O)c1ccc(-c2ccccc2Cl)c(Cl)c1)C1CCCCC1)C(=O)c1nnc(-c2ccccc2)o1` was tested. Which “% Inhibition @ 10 uM” value did it give?
A: Its value is -0.207%.

Q: `CC12C=CC(C)(O1)C1C(=O)N(c3cccc(C(F)(F)F)c3)C(=O)C12` (stereo not shown) was tested. Which “% Inhibition @ 10 uM” value did it give?
A: Its value is -3.46%.

Q: How did the “% Inhibition @ 10 uM” value turn out when `COc1ccc(CN2CC(C(=O)N3CC(C)CC(C)C3)CC2=O)cc1` (stereo not shown) was run?
A: The value was -0.0542%.

Q: Which “% Inhibition @ 10 uM” value does the source give for `O=C(C1CC1)N1CCC(c2c[nH]c3ccccc23)(c2c[nH]c3ccccc23)CC1` here?
A: The value was -2.37%.

Q: How did the “% Inhibition @ 10 uM” value turn out when `O=C(CC(c1ccccc1)c1ccccc1)N1CCc2ccccc2C1` was run?
A: The value was -8.7%.

Q: How did the “% Inhibition @ 10 uM” value turn out when `CCn1c2c(c3cc(Br)ccc31)CCC/C2=N\O` was run?
A: The value was -0.446%.

Q: With `Nc1cc(NC(=O)C23CC4CC(CC(C4)C2)C3)cc(Oc2ccccc2)c1` as the compound, how does the “% Inhibition @ 10 uM” value read?
A: Its value is 3%.

Q: With `COc1ccc(OCC2c3cc(OC)c(OC)cc3CCN2C(=O)C(C)Oc2ccccc2)cc1` (stereo not shown) as the compound, how does the “% Inhibition @ 10 uM” value read?
A: The value was 4.37%.

Q: With `CCOc1c(Cl)cc(/C=C2/SC(=O)N(CC)C2=O)cc1OC` as the compound, how does the “% Inhibition @ 10 uM” value read?
A: The value was 1.61%.

Q: For `CC(C)(C)c1ccc(S(=O)(=O)NCC(=O)Nc2sc3c(c2C(N)=O)CCCCC3)cc1`, which “% Inhibition @ 10 uM” value is on record?
A: The value was 0.145%.

Q: How did the “% Inhibition @ 10 uM” value turn out when `CC1CCCCN1S(=O)(=O)c1ccc(C(=O)Nc2cccc(Br)c2)cc1` (stereo not shown) was run?
A: The value was -1.59%.

Q: `Cc1ccc(NCC(O)CN2C(=O)c3ccccc3C2=O)cc1` (stereo not shown) was tested. Which “% Inhibition @ 10 uM” value did it give?
A: Its value is -0.992%.

Q: Which “% Inhibition @ 10 uM” value does the source give for `CC(C)N1C(=O)S/C(=C/c2ccc3c(c2)OCCO3)C1=O` here?
A: The value was 5.05%.

Q: `CCOC(=O)c1cnc2nc(NCc3cccc(C)c3)nn2c1O` was tested. Which “% Inhibition @ 10 uM” value did it give?
A: The value was -6.28%.

Q: `CC1CC2=C(CC1CN1CCN(C)CC1)C(C)(C)CCC2` (stereo not shown) was tested. Which “% Inhibition @ 10 uM” value did it give?
A: The value was 3.76%.

Q: For `Cc1ccccc1Cn1c(C)c(CNCCc2ccccc2)c(C(=O)O)c1C`, which “% Inhibition @ 10 uM” value is on record?
A: Its value is 1.41%.

Q: For `Cc1ccc(S(=O)(=O)N(CC(=O)N2CCOCC2)c2ccc(Cl)c(C(F)(F)F)c2)cc1`, which “% Inhibition @ 10 uM” value is on record?
A: Its value is -3.95%.

Q: How did the “% Inhibition @ 10 uM” value turn out when `CN(Cc1ccccc1)c1nc(-c2ccco2)cc(C(F)(F)F)n1` was run?
A: The value was 1.07%.

Q: For `CCN1C(=O)S/C(=C/c2cc(C)n(-c3ccc(S(N)(=O)=O)cc3)c2C)C1=O`, which “% Inhibition @ 10 uM” value is on record?
A: The value was 5.77%.

Q: How did the “% Inhibition @ 10 uM” value turn out when `O=C(OCCCc1nc2ccccc2[nH]1)c1cccc(F)c1` was run?
A: The value was -7.58%.

Q: Which “% Inhibition @ 10 uM” value does the source give for `Cc1cc(NC(=O)c2cc(-c3ccccc3O)on2)no1` here?
A: The value was -7.15%.

Q: `COc1ccc(C(=O)OCC(=O)n2c(C)c(C)c3ccccc32)cc1` was tested. Which “% Inhibition @ 10 uM” value did it give?
A: Its value is -3.33%.

Q: `Cc1cc(C)c2nc3s/c(=C\c4ccc(Cl)cc4)c(=O)n3c2c1` was tested. Which “% Inhibition @ 10 uM” value did it give?
A: The value was 4.57%.

Q: Which “% Inhibition @ 10 uM” value does the source give for `COc1ccc(/C=C(\NC(=O)c2ccccc2)C(=O)Nc2ccc(F)cc2)cc1OC` here?
A: The value was -7.96%.

Q: For `COc1ccc(OC)c(C2CC(=O)NC(SCC(N)=O)=C2C#N)c1` (stereo not shown), which “% Inhibition @ 10 uM” value is on record?
A: Its value is 4%.

Q: For `Cc1cccc(C2C3=C(CC(C)(C)CC3=O)N=C3c4ccccc4C(=O)C32)c1` (stereo not shown), which “% Inhibition @ 10 uM” value is on record?
A: The value was -3.63%.

Q: Which “% Inhibition @ 10 uM” value does the source give for `COc1cc2c(cc1OC)C(C(=O)NCc1ccccn1)C(c1cccnc1)N(C)C2=O` (stereo not shown) here?
A: Its value is -0.503%.

Q: With `COc1ccc(C2CC(=O)NC3=C2C(=O)CCC3)c(OC)c1` (stereo not shown) as the compound, how does the “% Inhibition @ 10 uM” value read?
A: Its value is -9.42%.

Q: For `Cc1ccc(-n2nc3c(N4CCC(C(=O)N5CCC(C(N)=O)CC5)CC4)nnc(C)c3c2C)cc1`, which “% Inhibition @ 10 uM” value is on record?
A: Its value is 3.08%.

Q: How did the “% Inhibition @ 10 uM” value turn out when `COCCCNC(=O)/C(C#N)=C/C1=Cc2ccccc2OC1` was run?
A: The value was -1.33%.

Q: `Cc1ccccc1C1CC(c2ccc(Cl)cc2OC(F)F)Nc2ncnn21` (stereo not shown) was tested. Which “% Inhibition @ 10 uM” value did it give?
A: The value was 1.86%.

Q: Which “% Inhibition @ 10 uM” value does the source give for `COc1ccc(C2=NC(c3sccc3C)NC(c3ccccc3O)C2)cc1` (stereo not shown) here?
A: Its value is -0.72%.

Q: `CC1(C)C(c2ccc(Cl)cc2)=[N+]([O-])C(C)(C)N1O` was tested. Which “% Inhibition @ 10 uM” value did it give?
A: The value was -3.41%.

Q: With `CCOc1cc(/C=C2\C(=N)N3N=C(S(=O)(=O)CC)SC3=NC2=O)ccc1O` as the compound, how does the “% Inhibition @ 10 uM” value read?
A: Its value is -3.35%.

Q: With `CC1=NN(c2nc3ccccc3s2)C(=O)C1CCC(C)C` (stereo not shown) as the compound, how does the “% Inhibition @ 10 uM” value read?
A: Its value is -3.33%.

Q: How did the “% Inhibition @ 10 uM” value turn out when `COCCN1C(=O)c2ccccc2C(C(=O)Nc2cc(C)ccn2)C1c1c[nH]c2ccccc12` (stereo not shown) was run?
A: The value was -3.41%.

Q: `CC(C)C(NS(=O)(=O)c1cccc2nsnc12)C(=O)Nc1ncc(Br)s1` (stereo not shown) was tested. Which “% Inhibition @ 10 uM” value did it give?
A: Its value is -0.465%.

Q: How did the “% Inhibition @ 10 uM” value turn out when `Brc1ccc(OCCN2CCCCC2)cc1` was run?
A: The value was 3.05%.

Q: `CCOC(=O)c1[nH]c2ccc(OC)cc2c1NC(=S)N1CCC(N2CCCCC2)CC1` was tested. Which “% Inhibition @ 10 uM” value did it give?
A: Its value is 1.68%.

Q: Which “% Inhibition @ 10 uM” value does the source give for `O=C(O)C1CSC2(CCC(c3ccccc3)CC2)N1` (stereo not shown) here?
A: The value was -12.6%.

Q: `Cc1ccc(CN(C(=O)c2ccc(C(C)(C)C)cc2)C2CCS(=O)(=O)C2)o1` (stereo not shown) was tested. Which “% Inhibition @ 10 uM” value did it give?
A: Its value is -1.32%.

Q: Which “% Inhibition @ 10 uM” value does the source give for `CN(Cc1ccccc1)C(=O)c1ccc(Cl)cc1Cl` here?
A: The value was -3.82%.

Q: Which “% Inhibition @ 10 uM” value does the source give for `COc1cc(OC)c(OC)cc1C=C(C#N)C#N` here?
A: Its value is 0.0345%.

Q: With `O=C(NCc1ccc2c(c1)OCO2)c1cc(-c2ccc(Cl)s2)nc2ccccc12` as the compound, how does the “% Inhibition @ 10 uM” value read?
A: Its value is -4.86%.

Q: For `CCc1ccc(-c2cn3nc(N4CCC(C(=O)NC5CCCC5)CC4)sc3n2)cc1`, which “% Inhibition @ 10 uM” value is on record?
A: Its value is -1.6%.

Q: How did the “% Inhibition @ 10 uM” value turn out when `Cc1ccccc1/C=c1/sc2n(c1=O)C(N)=C(C#N)C(c1ccccc1C)C=2C#N` (stereo not shown) was run?
A: The value was -1.68%.

Q: For `CC(C)CC(NC(=O)c1cccc(NC(=O)NCc2cccnc2)c1)C(=O)NCC#N` (stereo not shown), which “% Inhibition @ 10 uM” value is on record?
A: Its value is -7.36%.

Q: Which “% Inhibition @ 10 uM” value does the source give for `CC(Oc1ccc(C(=O)NCc2ccccc2)cc1)C(=O)O` (stereo not shown) here?
A: Its value is 0.163%.

Q: For `CC(c1ccccc1)n1c(=O)ccn(CCOc2ccc(Cl)cc2)c1=O` (stereo not shown), which “% Inhibition @ 10 uM” value is on record?
A: Its value is 0.883%.
